Measurements: PubChem BioAssay AID686979 (National Center for Advancing Translational Sciences (NCATS), 2013)
Among all 420,000 compounds or so, about 50,000 (12%) were called active. This list was built around the results that the source calls inconclusive (neither active nor inactive); the mix of calls is not that of the screen. Calls come from the whole dose curve; as a rule, active = well fitted inhibition curve with a large enough effect; inconclusive = small, poorly fitted or top-dose-only effect; inactive = flat fitted curve, though single readings scatter. No potency is given beside an inconclusive call; the fits are too rough.

assay: qHTS for Inhibitors of human tyrosyl-DNA phosphodiesterase 1 (TDP1): qHTS in cells in presence of CPT; conditions: chicken DT40 Tdp1-/-;hTDP1 cells + 20 nM CPT, ATP luminescence, 48 h; activity change, negative = growth inhibition: at 46.2 µM (top of the series) unless noted; note: nearly all actives have a fitted effect of over 55% in size
Outline: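 Chicken DT40 Tdp1-/- cells complemented with human TDP1, 400 cells/well, exposed to compounds plus 20 nM camptothecin for at least 48 h at 37 C; viability read as ATP content by CellTiter-Glo luminescence.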
% is set by controls: 0 for no effect and ±100 for the full control effect; potency is the fitted concentration of half-maximal effect; tags give direction and shape of the fitted curve.

SMILES | activity change, negative = growth inhibition | Potency
CC(C)(C)c1ccc(C(=O)N2CCN(CCc3ccccn3)CC2)cc1 | inactive: -7.64% | 
O=C(COc1cc2oc(=O)c3c(c2cc1Cl)CCC3)NCCN1CCOCC1 | inactive: -18.9% | 
OCCN(CCO)CC(O)COCCC12CC3CC(CC(C3)C1)C2 (stereo unspecified) |  | inconclusive [inhibitor, single point]
CC(=O)N1c2ccc(S(=O)(=O)N(C)CC(=O)N(Cc3ccccc3)C(C)C)cc2CC1C (stereo unspecified) |  | inconclusive [inhibitor, single point]
COC(=O)C1C(O)CC[C@@H]2CN3CCc4c([nH]c5ccccc45)C3C[C@@H]12 (stereo partly specified) |  | inactive
O=C(c1ccc(N2CCOCC2)c([N+](=O)[O-])c1)N1CCCC(C(F)(F)F)C1 (stereo unspecified) | inactive: -20.2% | 
Cc1ccc(NCc2ccccc2O)cc1C |  | inconclusive [inhibitor, single point]
CCN(CC)S(=O)(=O)c1cc(NC(=O)CN2C(=O)NC3(CCCc4ccccc43)C2=O)ccc1C (stereo unspecified) |  | active: 23.1 µM
Cc1cc(C)n(-c2ccc(C(=O)OCC(=O)Nc3cc(S(C)(=O)=O)ccc3Cl)cc2)n1 | inactive: -16.3% | 
O=C(Nc1ccccc1)N(CCCN1CCOCC1)Cc1ccccc1F | inactive: -5.92% | 
CCOc1ccccc1C(=O)N1CC(=O)Nc2ccc(C)cc2C1c1ccccc1 (stereo unspecified) |  | inconclusive [inhibitor, single point]
CN(C)CCCNC(=O)C(=O)Nc1cc2c3c(c1)CC(=O)N3CCC2 | inactive: -2.1% | 
Cc1ccc(CN2c3ccccc3-c3nc(SCC(=O)Nc4c(C)cc(C)cc4C)ncc3S2(=O)=O)cc1 |  | inconclusive [inhibitor, single point]
Cc1ccc(CNC(=O)COC(=O)c2cccc(S(=O)(=O)N3CCCCC3)c2)cc1 | inactive: -20.3% | 
CCCCC(C(=O)NC1CCCC1)N(C(=O)c1snc(C(N)=O)c1N)c1ccc(C)cc1 (stereo unspecified) |  | active: 18.4 µM
CC1(C)CC(=O)C(Sc2ccccc2[N+](=O)[O-])=C(O)C1 |  | inconclusive [inhibitor, single point]
Cn1cnc([N+](=O)[O-])c1Oc1ccc2ccccc2c1 |  | active: 8.2 µM
O=C1CCCN2N=C(SCC(=O)Nc3cccc(C(F)(F)F)c3)SC2=N1 |  | active: 4.61 µM

SMILES | activity change, negative = growth inhibition | Potency
Cc1c(C(=O)NN)sc(-c2ccccc2)c1C#N |  | inconclusive [inhibitor, single point]
CC(C)CN(C(=O)CCc1ccccc1Cl)c1c(N)n(Cc2ccccc2)c(=O)[nH]c1=O | inactive: -7.4% | 
Cc1ccccc1NC1=NC(=S)N(c2ccccc2)C12CCCCC2 |  | active: 18.4 µM
Cc1ccc2[nH]c3c(c2c1)CN(C(=O)CC1(c2ccccc2)CC(=O)N(Cc2cccnc2)C1=O)CC3 (stereo unspecified) |  | inconclusive [inhibitor, single point]
C=CCOn1c(=O)c(-c2cc3ccccc3o2)[n+]([O-])c2ccccc21 | inactive: -77.1% | 
CCOC(=O)N1CCC(=NNC(=O)c2cc3ccccc3cc2O)CC1 | inactive: 6.52% | 
COCc1c(C(=O)NCCc2ccc(OC(F)F)cc2)oc2ccccc12 |  | active: 13 µM
COC(=O)[C@@]1(Cc2ccc(F)cc2)[C@H]2c3cc(C(=O)N(C)C)n(CCF)c3C[C@H]2CN1C(=O)c1ccccc1 |  | inconclusive [inhibitor, single point]
COc1ccc(/C=C2\SC(=S)N(CCCC(=O)N3CCCCC3CCO)C2=O)cc1 (stereo unspecified) |  | inconclusive [inhibitor, single point]
CCc1ccc(N2CC(C(=O)N/N=C/c3cccc([N+](=O)[O-])c3)CC2=O)cc1 (stereo unspecified) |  | inconclusive [inhibitor, single point]
CCOc1ccccc1NC(=O)N1CCc2c(sc3c2CCCC3)C1c1ccccc1 (stereo unspecified) |  | inconclusive [inhibitor, single point]
O=C(CNc1ccccc1)N/N=C/c1c(O)ccc2ccccc12 |  | active: 10.3 µM
COc1ccc(NC(=O)C(CC(=O)O)Cc2ccc(Cl)cc2)cc1 (stereo unspecified) | inactive: -2.34% | 
COc1ccc(C(=O)NC(C)c2cc(OC)c(OC)cc2Br)cc1 (stereo unspecified) |  | inconclusive [inhibitor, partial curve]
COc1cccc(NC(=O)CN(C)C(=O)CSc2ncnc3sc(C)c(C)c23)c1 |  | inconclusive [inhibitor, single point]
CCN(CCO)c1nc(NCc2ccccc2)c2cnn(C)c2n1 |  | inconclusive [inhibitor, partial curve]
Cc1ccc(-c2nc(CS(=O)(=O)CC(=O)N3CCCCCC3)c(C)o2)cc1 |  | inconclusive [inhibitor, partial curve, poor fit]
COc1ccc(C2=NN(C(=O)CCCC(=O)O)C(c3cn(-c4ccccc4)nc3-c3ccccc3)C2)cc1 (stereo unspecified) | inactive: -5.66% | 
